Source: PubChem BioAssay AID485344 (National Center for Advancing Translational Sciences (NCATS), 2010)
Hit rate of the full screen: of about 340,000 compounds, about 6,900 (2%) were called active. Rule as the data show it: active = inhibition above about 30%; inactive = below that, where a call was filed. The entries are a selection whose mix differs from that of the whole data set. The source gives no active or inactive call for entries shown without one.

What follows are molecules tested against D(2) dopamine receptor (Homo sapiens) (UniProt P14416) (assay: HTS Assay for Allosteric Antagonists of the Human D2 Dopamine Receptor: Primary Screen for Antagonists). Settings: HEK293 TREx D2 cells, calcium flux, dopamine EC80; at 10 µM; stronger effect = higher value.
Summary of the method: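 Overnight-induced (tetracycline, 30 C) HEK293 T-REx cells carrying force-coupled D2 receive a no-wash calcium dye, then compound, then EC80 dopamine at 180 s; signals are read kinetically throughout.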
Also: 0% is about no effect.

Chain of UniProt P14416 (P14416 whole entry, looked up): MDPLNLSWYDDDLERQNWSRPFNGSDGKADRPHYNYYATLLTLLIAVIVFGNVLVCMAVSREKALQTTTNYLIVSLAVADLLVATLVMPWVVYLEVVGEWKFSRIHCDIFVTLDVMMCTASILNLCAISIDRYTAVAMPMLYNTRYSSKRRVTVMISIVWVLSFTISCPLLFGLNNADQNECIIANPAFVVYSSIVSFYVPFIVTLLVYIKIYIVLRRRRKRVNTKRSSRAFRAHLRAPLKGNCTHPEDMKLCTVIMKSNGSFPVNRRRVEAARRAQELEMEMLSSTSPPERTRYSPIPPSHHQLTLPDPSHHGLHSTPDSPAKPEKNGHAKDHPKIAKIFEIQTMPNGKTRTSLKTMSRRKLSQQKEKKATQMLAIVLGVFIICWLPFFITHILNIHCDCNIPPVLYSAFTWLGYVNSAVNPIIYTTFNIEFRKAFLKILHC

Compound	inhibition
COc1cccc2cc(-c3nc(-c4cccs4)no3)c(=O)oc12	-5.29%
COc1cc(NC(=O)CCc2c(C)nc3c(c(C)nn3-c3ccccc3)c2C)cc(OC)c1OC	3.87%
CN1C(=O)C2CCCCN2c2ccc(C(=O)NCc3ccccc3Br)cc21 (stereo not given)	3.98%
COc1ccc(S(=O)(=O)c2cn(CC(=O)Nc3ccccc3)c3ccc(Cl)cc3c2=O)cc1	-3.99%
COc1ccc(CSc2nc3ccncc3n2Cc2nc(-c3ccc(OC)c(OC)c3)oc2C)cc1	12.6%
CCOC(=O)CSc1nc2c([nH]c3ccccc32)c(=O)n1-c1ccc(OCC)cc1	0.499%
Cc1ccccc1C(=O)Nc1nc2c(s1)CC(C(C)(C)C)CC2 (stereo not given)	-2.7%
COc1ccc2c(c1)c1c(c(=O)n(-c3cccc(Cl)c3)c(=O)n1C)n2C	5.59%
CCOC(=O)c1c(-c2ccccc2)oc2ccc(NS(=O)(=O)c3ccccc3)cc12	6.08%
COc1ccc(S(=O)(=O)NCc2cccn2Cc2cccc(C)c2)cc1OC	8.15%
CCN(C(=O)CSc1nnc(C)n2c1cc1occc12)c1ccccc1	19.5%
Cc1cc([N+](=O)[O-])ccc1NC(=O)CSc1nccn1C	15.4%
COc1ccc(CNC(=O)c2cnc(N3CCCC3)nc2C)cc1	-1.08%
O=C(CSc1cn(CC(=O)N2CCOCC2)c2ccccc12)Nc1ccccc1C(F)(F)F	-9.39%
Cc1cccc(NC(=O)CSc2nc(=O)n(CCN3CCOCC3)c3c2CCC3)c1C	5.22%
Cc1cccc(Cn2nnc3c(=O)[nH]c(C4CCN(C(=O)c5ccccc5F)CC4)nc32)c1	2.67%
CCCC(=O)NCc1nc2cccnc2n1Cc1ccc(F)cc1	-6.5%
CCOC(=O)c1ccc(NC(=O)Cc2coc3cc(C)cc(C)c23)cc1	6.75%
Cc1ccc(NC(=O)Cn2c(=O)n(Cc3ccc4c(c3)OCO4)c(=O)c3ccc(C(=O)NC4CCCCC4)cc32)cc1	2.09%
O=C(Nc1cc(-c2nc3ccccc3o2)ccc1Cl)c1cccc2c(Cl)cccc12	-6.62%
Cc1ccc2[nH]c3c(c2c1)CN(C)CC3	active: 31.1%
O=C(COC(=O)/C=C/c1ccc(Cl)cc1)NC(=O)NCc1ccccc1	active: 44.2%
Cc1ccc(CNC(=O)C(=O)NCC(c2cccs2)S(=O)(=O)c2ccccc2)cc1 (stereo not given)	-0.663%
CCCn1c(=N)c(C(=O)NCc2ccccc2)cc2c(=O)n3cccc(C)c3nc21	-1.37%

Compound	inhibition
N#C/C(=C\c1ccc(-c2ccc(Br)cc2)o1)C(=O)Nc1ccccc1O	6%
Cc1ccc(-n2ncc3c(N4CCN(Cc5ccccc5)CC4)ncnc32)cc1C	14.4%
S=c1[nH]c(-c2ccccc2)cn1/N=C/c1cccc2ccccc12	active: 33%
Cc1oc(-c2ccccc2F)nc1Cn1c(SCc2cccc(Cl)c2)nc2ccncc21	-5.21%
O=c1c2c(nc3cc(-c4ccc(Br)cc4)[nH]n13)CCCC2	active: 54.1%
O=C(NCCc1csc(-c2ccc(C(F)(F)F)cc2)n1)c1ccccc1Cl	1.38%
Cc1cccc(OCC(=O)Nc2ccc(S(=O)(=O)N(Cc3ccccc3)c3ccccc3)cc2)c1	-9.15%
COC(=O)c1ccccc1NC(=O)C1CCCN(C(=O)c2cnn(-c3ccc(F)cc3)c2-n2cccc2)C1 (stereo not given)	10.5%
CCc1nn(CC(=O)NCC(C)c2ccccc2)c(=O)c2cc3c(OC)cccc3n12 (stereo not given)	2.91%
COCCn1c(=O)[nH]c2cc(C(=O)N3CCN(c4ccc(F)cc4)CC3)ccc2c1=O	-13.6%
Cn1c(-c2nonc2NC(=O)c2ccc(C(C)(C)C)cc2)nc2ccccc21	active: 44.2%
Cc1cc(Br)cc(C)c1OCC(=O)Nc1ccc(S(=O)(=O)Nc2ncccn2)cc1	12%
CCN1c2ccccc2-c2nc(SCC(=O)Nc3cc(C)c(Cl)cc3OC)ncc2S1(=O)=O	9.11%
O=C(COc1ccc(F)cc1)NCc1ccc2c(c1)CCN2C(=O)c1ccc(F)cc1	-2.19%
Cc1ccc(C)c(N2CCN(c3nc4ccccc4n4nnnc34)CC2)c1	6.46%
COc1ccc(CCNC(=O)c2c3c(nc4ccccc24)C(=O)N(C2CCCCC2)C3)cc1OC	5.76%
O=C(Nc1ccc(F)c(Cl)c1)C1CCN(c2ncccn2)CC1	-21.5%
Nc1ncc(S(=O)(=O)N2CCN(c3ccccc3)CC2)cn1	9.37%
COc1ccccc1C(=O)Nc1ccnn1C1CCN(Cc2csc(C(C)=O)c2)CC1	active: 31.7%
COC(=O)CC1Oc2ccc(Cl)cc2-n2cc(-c3ccc(C)cc3)nc21 (stereo not given)	14.2%
O=C(CSc1nc2c([nH]c3ccccc32)c(=O)n1-c1ccc(F)cc1)Nc1ccc2c(c1)OCO2	-26.6%
Cc1ccc(S(=O)(=O)C(CNC(=O)C(=O)NCCc2ccc(F)cc2)c2cccs2)cc1 (stereo not given)	-8.04%
COc1cc(NC(=O)CSc2ccc(-c3sc(C)nc3C)nn2)cc(OC)c1	-10.7%
COc1ccc(N2CCN(C(=O)c3ccc(CS(=O)c4cccc(C)c4)o3)CC2)cc1 (stereo not given)	-3.72%

Compound	inhibition
COc1ccc(Cl)cc1NC(=O)c1oc2ccc(S(=O)(=O)N3CCCCC3)cc2c1C	5.83%
CCCOc1ccc(C(=O)Nc2cccc(NC(=O)c3ccc(Cl)cc3Cl)c2)cc1	4.46%
CC(=O)N1CCc2cc(CNS(=O)(=O)c3ccccc3C(F)(F)F)ccc21	-0.788%
Cc1nn(CC(=O)NCc2ccco2)c(=O)c2nn(-c3ccccc3)c(C)c12	-3.82%
CCOc1cccc(C2Oc3nc(SC)nnc3-c3ccccc3N2C(C)=O)c1OC (stereo not given)	10.3%
O=C(CSc1nc2ccccc2n1Cc1cccc(C(F)(F)F)c1)NCc1ccccc1	5.82%
Cc1cc(C)cc(NC(=O)Cn2c(C)cc(C)c(C#N)c2=O)c1	-7.45%
O=C(O)c1ccc(CSc2nc3cccnc3n2Cc2cccc(F)c2)cc1	-5.21%
CC(=O)Nc1ccc(NC(=O)c2c(-c3ccccc3)noc2C)cc1	15.8%
CCNC(=S)NNC(=O)c1ccccc1OC(F)F	active: 32.7%
COc1ccc(-n2cnc3cc(C(=O)NCCC4=CCCCC4)ccc32)cc1	-21.5%
COC(=O)c1ccccc1NC(=O)Cc1nc(-c2ccc(OC)cc2)no1	-0.92%
Cc1csc2nc(COC(=O)c3ccc(NC(=O)c4ccccc4Br)cc3)cc(=O)n12	-25.8%
COc1ccc(OC)c(NC(=O)CN(c2ccccc2OC)S(=O)(=O)c2ccc(C)cc2)c1	-10.9%
O=C(Nc1cccc(C(=O)OCc2cc(=O)n3ccsc3n2)c1)c1ccc(F)cc1	10.5%
Cc1nc2nc(SCC(=O)NCCc3ccc(Cl)cc3)nn2c(C)c1Cc1c(F)cccc1Cl	13.6%
CCOCCCNC(=O)CCC(=O)NNc1nc2ccccc2c2nc(C)nn12	-1.47%
CCN(c1ccc(C)cc1C)S(=O)(=O)c1nnc(NC(=O)c2ccc(F)cc2)s1	16.8%
CCN(Cc1ccccc1)C(=O)CN1C(=O)COc2ccc(S(=O)(=O)N3CCOCC3)cc21	-7.42%
O=C(NCCCN1CCN(c2ccccc2)CC1)C1CCCN(c2ncnc3c2nc2n3CCCCC2)C1 (stereo not given)	active: 59.5%
Cc1ccc2oc(=O)c(-c3nc(-c4cccs4)no3)cc2c1	6.79%
CC(C)n1ncc2c(C(=O)N3CCN(Cc4ccc(Br)s4)CC3)cc(C3CC3)nc21	active: 70.3%
COc1cccc(-c2cc(C(=O)Nc3ccc(OC)cc3OC)no2)c1	22.7%
CCOc1ccccc1NC(=O)Cn1c(=O)n(-c2ccc(C)c(C)c2)c(=O)c2c(C)c(C(=O)N(C)C)sc21	6.59%

Compound	inhibition
COc1cccc(-c2nnc(SCC(=O)N3CCc4ccccc43)o2)c1	-7.46%
Cc1cc2c(cc1C)NC(CC(=O)Nc1cccc(C)c1C)C(=O)N2 (stereo not given)	11.1%
CCS(=O)(=O)c1c(S(=O)(=O)CC)c2cc(C(C)(C)C)ccn2c1C(=O)c1ccc(F)cc1	11.6%
O=C(NCc1ccc(Cl)cc1)C(=O)NCC(c1cccnc1)N1CCN(c2ccccc2)CC1 (stereo not given)	12.9%
COc1cc(Cl)c(C)cc1NC(=O)Cn1cnc2sc(C)c(S(=O)(=O)N3CCCCC3)c2c1=O	7.25%
Clc1ccc(Nc2ncnc3ccc(Br)cc23)cc1	active: 34.2%
Cc1noc(NS(=O)(=O)c2ccc(NC(=O)COc3ccccc3Br)cc2)c1C	-1.8%
CCOc1ccccc1NC(=O)Nc1ccccc1OCc1cc(=O)n2ccccc2n1	2.03%
Cc1ccc(CCNC(=O)c2ccc(CS(=O)(=O)Cc3ccc(Cl)cc3)o2)cc1	-8.28%
CCOC(=O)c1scc(-c2ccc(C)cc2)c1S(=O)(=O)Nc1cc(C)ccc1C	18.3%
CCOC(=O)c1ccccc1NC(=O)CN(c1cc(C(F)(F)F)ccc1Cl)S(C)(=O)=O	-3.39%
COc1cccc(NC(=O)Cn2c(=O)c3cccn3c3ccc(F)cc32)c1	-0.152%
O=S(=O)(c1ccccc1)n1nc(-c2ccc(Cl)cc2)nc1NCc1ccc(F)cc1	3.55%
Cc1ccc(-c2noc(CN(C(=O)c3ccc(C(C)(C)C)cc3)C(C)C)n2)cc1	-8.2%
COc1cccc(-c2nc(SCC(=O)NCc3ccccc3)c3c(=O)n(C)c(=O)n(C)c3n2)c1	-14.6%
CCCCSCCCNC(=O)c1cn(CC)c2ccc(S(=O)(=O)N(C)C3CCCCC3)cc2c1=O	-15.7%
COc1cccc(N2CCN(S(=O)(=O)c3ccc(-c4cc(C(F)(F)F)on4)s3)CC2)c1	-3.09%
Cc1ccc(CCNC(=O)CCS(=O)(=O)c2ccc3c(c2)oc(=O)n3C)cc1	-0.913%
O=C(Cn1ccc2cc(S(=O)(=O)N3CCCCCC3)ccc21)NCCc1ccccc1Cl	-13.9%
COc1ccc(-c2nc(CN3CCN(c4ccccc4OC)CC3)c(C)o2)cc1	active: 98.5%
COc1ccc(C2CC(=O)N(Cc3cccc(C)c3)c3c2c(C)nn3-c2nc(C)cc(C)n2)c(OC)c1 (stereo not given)	10.8%
COC(=O)c1sc2cccc(F)c2c1S(=O)(=O)NCc1ccc(F)cc1	11.4%
CCOC(=O)c1cnc2c(Cl)c(Cl)ccc2c1Nc1ccc(N(C)C)cc1	-20.6%
